Experimental findings from US8613929B2, “Methods and compositions for targeting agents into and across the blood-brain barrier and other endothelial cell microvascular barriers” (priority 2003, dated 2013) are described below.

The test addresses LPSS14 (DTR) (Bos taurus, UniProt E1BIN8). The class given is cell-based, bovine.

Sequence of LPSS14 (DTR) (E1BIN8 24-208 limits assumed): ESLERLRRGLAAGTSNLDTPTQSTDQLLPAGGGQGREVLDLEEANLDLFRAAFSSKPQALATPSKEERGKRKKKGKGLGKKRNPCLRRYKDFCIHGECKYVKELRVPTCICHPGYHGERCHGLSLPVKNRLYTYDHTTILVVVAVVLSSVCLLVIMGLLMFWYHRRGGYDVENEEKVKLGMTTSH

Turning to “soluble HB-EGF: soluble heparin-binding EGF-like growth factor, non-competitive antagonist for the DTR by binding to the receptor-binding domain of DT”, the “toxic effect of DT on BCEC-Astrocytes cocultures after preincubation of DT” value (100 ng/ml DT preincubated 1 hour with soluble HB-EGF 0.1-10 microgram/ml, apical (FIG. 7)) was “decreased in a concentration dependent manner”. Moreover, the “DT-induced toxic effect on BCEC” value (100 ng/ml DT preincubated with 10 microgram/ml of soluble HB-EGF, even after an overnight assessment) was “completely prevented”.
